Data published in PubChem BioAssay AID180 (DTP/NCI, 2004).
Certain results were filed several times, with different values. They are shown here; other results are not. There may be further records. Results that share an entry are repeats (runs, samples, wells, individuals or studies).

Test system: BDF1 mice, Adenocarcinoma 755 s.c., tumor weight T/C
Assay: NCI In Vivo Anticancer Drug Screen. Data for tumor model Adenocarcinoma 755 (subcutaneous) in B6D2F1 (BDF1) mice
Settings: endpoint: mean tumor weight, higher = larger tumour
Method in brief: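 Compound activity was tested in mice carrying transplanted tumors. Survival or tumor size was measured, and each value is the treated-group measurement divided by that of the vehicle-treated control group (T/C).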

[1] = dose: 100.0 mg/kg/injection, schedule: Q01DX011 (ip), vehicle: carboxymethylcellulose (CMC)
[2] = dose: 15.0 mg/kg/injection, schedule: Q01DX011 (sc), vehicle: steriod suspending solution
[3] = dose: 3.0 mg/kg/injection, schedule: Q01DX011 (sc), vehicle: steriod suspending solution

CC(=O)OC1(C)CC(C)C(=O)C(C(O)CC2CC(=O)NC(=O)C2)C1 (stereo not given)
T/C (dose: 1:1500.0 dilution, schedule: Q01DX006 (ip), vehicle: water): 69 % of control and 104 % of control
T/C (dose: 1:3000.0 dilution, schedule: Q01DX006 (ip), vehicle: water): 79 % of control and 113 % of control
T/C (dose: 1:4000.0 dilution, schedule: Q01DX006 (ip), vehicle: water): 50 % of control and 107 % of control
T/C (dose: 1:10000.0 dilution, schedule: Q01DX006 (ip), vehicle: water): 60 % of control, 87 % of control, 100 % of control
T/C (dose: 1:50000.0 dilution, schedule: Q01DX006 (ip), vehicle: water): 48 % of control, 89 % of control, 95 % of control

O=C1NC(=O)C(c2ccc(Cl)cc2)(c2ccccc2Cl)N1 (stereo not given)
T/C (dose: 400.0 mg/kg/injection, schedule: Q01DX011 (ip), vehicle: saline): 42 % of control and 78 % of control

O=C(OCC1OC(n2cnc3c(=S)nc[nH]c32)C(OC(=O)c2ccc(Cl)cc2)C1OC(=O)c1ccc(Cl)cc1)c1ccc(Cl)cc1 (stereo not given)
T/C [1]: 4 % of control and 90 % of control
T/C (dose: 200.0 mg/kg/injection, schedule: Q01DX011 (ip), vehicle: carboxymethylcellulose (CMC)): 6 % of control and 60 % of control

[Br][Hg][CH2]C1COC([CH2][Hg][Br])CO1 (stereo not given)
T/C (dose: 25.0 mg/kg/injection, schedule: Q01DX011 (ip), vehicle: carboxymethylcellulose (CMC)): 40 % of control and 66 % of control

CN(C)[C@@H]1C(=O)C(C(=O)NCc2nc3[nH]cnc(=S)c3[nH]2)=C(O)[C@@]2(O)C(=O)C3=C(O)c4c(O)cccc4[C@@](C)(O)[C@H]3C[C@@H]12
T/C (dose: 7.0 mg/kg/injection, schedule: Q01DX011 (ip), vehicle: carboxymethylcellulose (CMC)): 8 % of control, 30 % of control, 47 % of control

CS(=O)(=O)OCCCCOS(C)(=O)=O
T/C (dose: 13.33 mg/kg/injection, schedule: Q01DX011 (ip), vehicle: carboxymethylcellulose (CMC)): 72 % of control and 109 % of control
T/C (dose: 20.0 mg/kg/injection, schedule: Q01DX011 (ip), vehicle: saline): 52 % of control, 79 % of control, 102 % of control
T/C (dose: 30.0 mg/kg/injection, schedule: Q03DX004 (ip), vehicle: saline): 16 % of control and 82 % of control
T/C (dose: 80.0 mg/kg/injection, schedule: Q01DX011 (sc), vehicle: saline): 11 % of control and 38 % of control

CCCCNc1nc(N)nc(Nc2ccc(Br)cc2)c1N=O
T/C (dose: 400.0 mg/kg/injection, schedule: Q01DX011 (ip), vehicle: carboxymethylcellulose (CMC)): 16 % of control and 51 % of control

CC(=O)OCC(=O)[C@@]1(O)CC[C@H]2[C@@H]3C[C@H](C)C4=CC(=O)CC[C@]4(C)[C@H]3[C@@H](O)C[C@@]21C
T/C (dose: 11.0 mg/kg/injection, schedule: Q01DX011 (sc), vehicle: steriod suspending solution): 41 % of control and 120 % of control
T/C (dose: 22.0 mg/kg/injection, schedule: Q01DX011 (sc), vehicle: steriod suspending solution): 30 % of control and 88 % of control

CC/C(=C(/CC)c1ccc(O)cc1)c1ccc(O)cc1
T/C (dose: 6.43 mg/kg/injection, schedule: Q01DX011 (sc), vehicle: steriod suspending solution): 52 % of control and 95 % of control

CC(=O)OCC(=O)[C@@]1(O)CC[C@H]2[C@@H]3CCC4=CC(=O)CC[C@]4(C)[C@H]3[C@@H](O)C[C@@]21C
T/C [2]: 21 % of control, 36 % of control, 51 % of control
T/C (dose: 560.0 mg/kg/injection, schedule: Q01DX001 (sc), vehicle: steriod suspending solution): 24 % of control and 105 % of control

Ic1ncnc2c1ncn2C1CCCCO1 (stereo not given)
T/C (dose: 40.0 mg/kg/injection, schedule: Q01DX011 (ip), vehicle: other): 66 % of control and 95 % of control

Cc1cc2nc3c(=O)[nH]c(=O)nc-3n(CC(O)C(O)C(O)C(O)CO)c2cc1C (stereo not given)
T/C (dose: 29.0 mg/kg/injection, schedule: Q01DX011 (ip), vehicle: carboxymethylcellulose (CMC)): 68 % of control, 103 % of control, 120 % of control
T/C (dose: 44.0 mg/kg/injection, schedule: Q01DX011 (ip), vehicle: carboxymethylcellulose (CMC)): 15 % of control, 67 % of control, 93 % of control
T/C (dose: 66.0 mg/kg/injection, schedule: Q01DX011 (ip), vehicle: carboxymethylcellulose (CMC)): 24 % of control, 76 % of control, 78 % of control
T/C [1]: 22 % of control, 40 % of control, 66 % of control

CCn1cnc2c(=S)nc[nH]c21
T/C (dose: 1.5 mg/kg/injection, schedule: Q01DX011 (ip), vehicle: carboxymethylcellulose (CMC)): 24 % of control and 66 % of control

C[C@H]1C[C@H]2[C@@H]3CC[C@](O)(C(=O)CO)[C@@]3(C)C[C@H](O)[C@]2(F)[C@@]2(C)C=CC(=O)C=C12
T/C [3]: 52 % of control and 83 % of control
T/C [2]: 18 % of control and 51 % of control

CCOC(=O)C1=C(C)NC(C)=C(C(=O)OCC)C1C
T/C (dose: 250.0 mg/kg/injection, schedule: Q01DX011 (ip), vehicle: other): 30 % of control and 62 % of control

CC(/C=N\N=C(N)N)=N/N=C(N)N
T/C (dose: 30.66 mg/kg/injection, schedule: Q01DX011 (ip), vehicle: carboxymethylcellulose (CMC)): 61 % of control and 96 % of control

CC(C)OC(=O)C1(N)CCCC1
T/C (dose: 15.0 mg/kg/injection, schedule: Q01DX011 (ip), vehicle: other): 55 % of control and 109 % of control
T/C (dose: 28.0 mg/kg/injection, schedule: Q01DX011 (ip), vehicle: carboxymethylcellulose (CMC)): 39 % of control and 73 % of control
T/C (dose: 30.0 mg/kg/injection, schedule: Q01DX011 (ip), vehicle: other): 27 % of control and 77 % of control
T/C (dose: 56.0 mg/kg/injection, schedule: Q01DX011 (ip), vehicle: saline): 10 % of control and 42 % of control
T/C (dose: 60.0 mg/kg/injection, schedule: Q01DX011 (ip), vehicle: other): 7 % of control and 51 % of control

CC(=O)OCC(=O)[C@@]1(O)CC[C@H]2[C@@H]3CCC4=CC(=O)C=C[C@]4(C)[C@@]3(F)[C@@H](O)C[C@@]21C
T/C (dose: 0.56 mg/kg/injection, schedule: Q01DX011 (sc), vehicle: steriod suspending solution): 38 % of control and 72 % of control
T/C [3]: 43 % of control and 84 % of control
T/C (dose: 6.0 mg/kg/injection, schedule: Q01DX011 (sc), vehicle: steriod suspending solution): 16 % of control and 51 % of control
T/C (dose: 12.0 mg/kg/injection, schedule: Q01DX011 (sc), vehicle: steriod suspending solution): 18 % of control and 50 % of control
T/C (dose: 12.5 mg/kg/injection, schedule: Q01DX011 (sc), vehicle: steriod suspending solution): 21 % of control and 55 % of control

CN(C)[C@@H]1C(=O)C(C(=O)NCN(CCCl)CCCl)=C(O)[C@@]2(O)C(=O)C3=C(O)c4c(O)cccc4[C@@](C)(O)[C@H]3C[C@@H]12
T/C (dose: 30.0 mg/kg/injection, schedule: Q01DX011 (ip), vehicle: saline): 31 % of control and 61 % of control

C[N+](C)(C)c1ncnc2nc[nH]c12
T/C (dose: 5.0 mg/kg/injection, schedule: Q01DX011 (ip), vehicle: saline): 22 % of control, 74 % of control, 95 % of control
T/C (dose: 10.0 mg/kg/injection, schedule: Q01DX011 (ip), vehicle: saline): 1 % of control, 19 % of control, 32 % of control

Cn1c(=O)c2[nH]c(N/N=C/c3ccccc3)nc2n(C)c1=O
T/C (dose: 75.0 mg/kg/injection, schedule: Q01DX011 (ip), vehicle: methylcellulose (MC)): 34 % of control and 109 % of control

COc1cc2c3c(c4cc(OC)c(OC)cc4c2cc1OC)CN1CCC[C@H]1C3
T/C (dose: 13.3 mg/kg/injection, schedule: Q01DX006 (ip), vehicle: water): 33 % of control and 90 % of control

C[C@H]1C(=O)O[C@@H]2CCN3CC=C(COC(=O)[C@](C)(O)[C@@]1(C)O)[C@H]23
T/C (dose: 22.5 mg/kg/injection, schedule: Q01DX011 (ip), vehicle: methylcellulose (MC)): 38 % of control and 83 % of control
T/C (dose: 45.0 mg/kg/injection, schedule: Q01DX011 (ip), vehicle: methylcellulose (MC)): 17 % of control and 49 % of control
T/C (dose: 90.0 mg/kg/injection, schedule: Q01DX011 (ip), vehicle: methylcellulose (MC)): 12 % of control and 54 % of control

Cn1cnc([N+](=O)[O-])c1Sc1nc(N)nc2nc[nH]c12
T/C (dose: 0.5 mg/kg/injection, schedule: Q01DX011 (ip), vehicle: methylcellulose (MC)): 17 % of control and 48 % of control

C1CN1P1(N2CC2)=NP(N2CC2)(N2CC2)=NP(N2CC2)(N2CC2)=N1
T/C (dose: 0.7 mg/kg/injection, schedule: Q01DX011 (ip), vehicle: methylcellulose (MC)): 58 % of control and 100 % of control
T/C (dose: 1.5 mg/kg/injection, schedule: Q01DX011 (ip), vehicle: methylcellulose (MC)): 69 % of control and 97 % of control
T/C (dose: 3.0 mg/kg/injection, schedule: Q01DX011 (ip), vehicle: methylcellulose (MC)): 42 % of control and 95 % of control

COc1ccc(C(=O)OCC2OC(n3cnc4c(=S)nc[nH]c43)C(OC(=O)c3ccc(OC)cc3)C2OC(=O)c2ccc(OC)cc2)cc1 (stereo not given)
T/C [1]: 40 % of control and 70 % of control

O=[As]O
T/C (dose: 5.2 mg/kg/injection, schedule: Q01DX011 (ip), vehicle: carboxymethylcellulose (CMC)): 53 % of control and 91 % of control
T/C (dose: 6.5 mg/kg/injection, schedule: Q01DX011 (ip), vehicle: carboxymethylcellulose (CMC)): 58 % of control, 62 % of control, 103 % of control
